Cytotoxicity call and growth inhibition call data for 27 molecules are collected here from the antibiotic and cytotoxicity screens of Wong et al. (2023).

One assay has as its system HSkMC. Nature of the assay: cytotoxicity call (relative viability < 0.9). Particulars: 10 µM.
Another assay has as its system HepG2. Nature of the assay: cytotoxicity call (relative viability < 0.9). The note with it: 10 µM.
The subject of a further assay is S. aureus RN4220. Description: growth inhibition call (relative growth <= 0.2). The note with it: 50 µM.

Some of the results follow.

On to `COc1ccc2c3c([nH]c2c1)[C@H](CO)N(C[C@]13CCN(CC1)Cc1cc(ccc1F)F)C(=O)Nc1ccc(cc1)F`, for which the cytotoxicity call in the assay on HSkMC and in the assay on HepG2 was “inactive” each time. Further, the growth inhibition call in the assay on S. aureus RN4220 was “inactive”.
As for `C[C@H]1CN([C@@H](C)CO)C(=O)c2cccc(NS(C)(=O)=O)c2O[C@@H]1CN(C)S(=O)(=O)c1ccc(F)cc1`, the cytotoxicity call in the assay on HSkMC and with HepG2 was “inactive” throughout. In addition, the growth inhibition call in the assay on S. aureus RN4220 was “inactive”.
With `Cc1ccc(CSc2nnc(CCN)o2)cc1`, in the assay on HSkMC, the cytotoxicity call was “inactive”. Moreover, the cytotoxicity call in the assay on HepG2 was “active”. Further, the growth inhibition call with S. aureus RN4220 is “inactive”.
Take `O=C(C[C@@H]1C[C@@H]2c3cc(NS(=O)(=O)c4ccc(F)cc4)ccc3O[C@@H]2[C@@H](CO)O1)NCc1ccccc1`: the cytotoxicity call in the assay with HSkMC and in the assay on HepG2 was “inactive” throughout. For the same molecule, the growth inhibition call with S. aureus RN4220 was “inactive”.
For `Cc1noc(C)c1S(=O)(=O)Nc1ccc2c(c1)C(=O)N([C@H](C)CO)C[C@H](C)[C@H](CN(C)C(=O)Nc1ccc(C(F)(F)F)cc1)OCCCC[C@H](C)O2`, the cytotoxicity call with HSkMC is “active”. In the assay on HepG2, the cytotoxicity call is “inactive”. In addition, the growth inhibition call in the assay on S. aureus RN4220 was “inactive”.
In the case of `C[C@@H]1CN([C@H](C)CO)C(=O)c2cc(NC(=O)c3ccccc3)ccc2O[C@@H](C)CCCCO[C@@H]1CN(C)C(=O)Nc1cccc2ccccc12`, the cytotoxicity call with HSkMC and in the assay on HepG2 was “inactive” in each case. Also, the growth inhibition call in the assay on S. aureus RN4220 was “inactive”.
For the molecule `Cn1c(Cl)cnc1CO`, the cytotoxicity call in the assay with HSkMC and with HepG2 was “inactive” throughout. Besides, the growth inhibition call in the assay with S. aureus RN4220 was “inactive”.
`C[C@H](CO)N1C[C@H](C)[C@H](CN(C)Cc2ccc(Oc3ccccc3)cc2)Oc2ccc(NC(=O)CCCN(C)C)cc2C1=O`: in the assay with HSkMC, the cytotoxicity call was “inactive”. For the same molecule, in the assay on HepG2, the cytotoxicity call was “active”. The growth inhibition call with S. aureus RN4220 was “inactive”.
With `C[C@@H]1CN([C@H](C)CO)C(=O)c2cc(NC(=O)Nc3ccc(C(F)(F)F)cc3)ccc2O[C@@H](C)CCCCO[C@@H]1CN(C)C(=O)Cc1ccccc1`, the cytotoxicity call with HSkMC is “active”. For the same molecule, in the assay on HepG2, the cytotoxicity call was “inactive”. Besides, in the assay with S. aureus RN4220, the growth inhibition call was “inactive”.
As to `O=C(Cc1ccccn1)NCC[C@H]1CC[C@H](NC(=O)CN2CCOCC2)[C@H](CO)O1`, the cytotoxicity call in the assay with HSkMC and with HepG2 was “inactive” throughout. Also, the growth inhibition call in the assay on S. aureus RN4220 was “inactive”.
Take `Cc1ccc(S(=O)(=O)N(C)C[C@H]2Oc3c(NS(=O)(=O)c4ccc(F)cc4)cccc3C(=O)N([C@@H](C)CO)C[C@H]2C)cc1`: the cytotoxicity call with HSkMC and in the assay with HepG2 was “inactive” in each case. The growth inhibition call with S. aureus RN4220 is “inactive”.
`CC(C)NC(=O)Nc1cccc2c1O[C@@H](CN(C)S(=O)(=O)c1ccc(F)cc1)[C@H](C)CN([C@H](C)CO)C2=O`: the cytotoxicity call with HSkMC and with HepG2 was “inactive” in each case. Further, the growth inhibition call in the assay on S. aureus RN4220 was “inactive”.
As to `COc1cccc(S(=O)(=O)N(C)C[C@@H]2Oc3ncc(-c4cccc(C(=O)N(C)C)c4)cc3C(=O)N([C@@H](C)CO)C[C@H]2C)c1`, the cytotoxicity call in the assay on HSkMC and with HepG2 was “inactive” each time. In addition, in the assay on S. aureus RN4220, the growth inhibition call is “inactive”.
With `C[C@H](CO)N1C[C@H](C)[C@@H](CN(C)C(=O)CCCN(C)C)OCCCC[C@H](C)Oc2ccc(N(C)C)cc2C1=O`, the cytotoxicity call in the assay with HSkMC and with HepG2 was “inactive” each time. Further, the growth inhibition call with S. aureus RN4220 is “inactive”.
Regarding `COCC#Cc1cnc2c(c1)C(=O)N([C@H](C)CO)C[C@@H](C)[C@H](CN(C)C(=O)c1cnccn1)O2`, the cytotoxicity call in the assay on HSkMC and in the assay on HepG2 was “inactive” each time. Besides, the growth inhibition call in the assay with S. aureus RN4220 is “inactive”.
As to `Cc1cc(C(=O)Nc2cccc3c2O[C@@H](CN(C)S(=O)(=O)c2c(C)noc2C)[C@@H](C)CN([C@H](C)CO)C3=O)n(C)n1`, the cytotoxicity call in the assay with HSkMC and in the assay with HepG2 was “inactive” each time. In the assay with S. aureus RN4220, the growth inhibition call was “inactive”.
With `C[C@@H]1CN([C@H](C)CO)C(=O)Cc2cc(NC(=O)Nc3ccc(C(F)(F)F)cc3)ccc2O[C@H]1CN(C)Cc1ccccc1`, the cytotoxicity call in the assay on HSkMC and with HepG2 was “active” in each case. Further, in the assay with S. aureus RN4220, the growth inhibition call was “inactive”.
Take `C[C@@H]1CCCCO[C@@H](CN(C)Cc2ccc(C(=O)O)cc2)[C@H](C)CN([C@H](C)CO)C(=O)c2cc(NS(=O)(=O)c3ccc(F)cc3)ccc2O1`: the cytotoxicity call in the assay on HSkMC and with HepG2 was “inactive” each time. Moreover, in the assay on S. aureus RN4220, the growth inhibition call is “inactive”.
Regarding `Nc1nc(=O)n([C@@H]2O[C@H](CO)[C@@H](O)[C@H]2O)cc1CO`, the cytotoxicity call in the assay with HSkMC and with HepG2 was “inactive” each time. The growth inhibition call in the assay with S. aureus RN4220 is “inactive”.
As for `C[C@@H]1CN([C@H](C)CO)C(=O)c2cc(NS(=O)(=O)c3cn(C)cn3)ccc2O[C@@H](C)CCCCO[C@H]1CN(C)C(=O)Nc1ccc(C(F)(F)F)cc1`, the cytotoxicity call in the assay with HSkMC and in the assay with HepG2 was “inactive” in each case. Also, the growth inhibition call in the assay on S. aureus RN4220 is “inactive”.
With `C=CCOC(=O)[C@@H]1[C@H]2C(=O)O[C@H](c3ccccc3)[C@H](c3ccccc3)N2[C@H](c2ccc(OCCOC(=O)[C@@H]3C[C@@H]4C(=O)N[C@@H](CCCCN(C)C)C(=O)N4[C@@H]3c3ccc(O)cc3)cc2)[C@@]12C(=O)Nc1ccc(I)cc12`, the cytotoxicity call in the assay on HSkMC and in the assay with HepG2 was “inactive” in each case. In the assay with S. aureus RN4220, the growth inhibition call was “inactive”.
Take `Cc1cc(C(=O)Nc2cccc3c2O[C@@H](CN(C)C(=O)Nc2ccccc2)[C@H](C)CN([C@H](C)CO)C3=O)n(C)n1`: the cytotoxicity call in the assay with HSkMC and in the assay on HepG2 was “inactive” throughout. Further, the growth inhibition call in the assay with S. aureus RN4220 is “inactive”.
As to `COc1ccc(-c2cc(=O)c3ccccc3o2)cc1`, the cytotoxicity call in the assay with HSkMC and in the assay with HepG2 was “inactive” in each case. The growth inhibition call with S. aureus RN4220 was “inactive”.
Turning to `COc1ccc(S(=O)(=O)Nc2ccc3c(c2)CC(=O)N([C@@H](C)CO)C[C@H](C)[C@@H](CN(C)S(=O)(=O)c2ccc(F)cc2)O3)cc1`, the cytotoxicity call in the assay on HSkMC and in the assay with HepG2 was “inactive” each time. Also, in the assay on S. aureus RN4220, the growth inhibition call was “inactive”.
Consider `N[C@@H](CSSC[C@H](N)C(=O)O)C(=O)O`, for which the cytotoxicity call in the assay on HSkMC (human skeletal muscle cells) and in the assay with HepG2 was “inactive” in each case. In the assay on S. aureus RN4220, the growth inhibition call is “inactive”.
Take `C[C@@H]1CCCCO[C@@H](CN(C)C(=O)c2ccccc2)[C@H](C)CN([C@@H](C)CO)C(=O)c2cc(NS(=O)(=O)c3ccc(Cl)cc3)ccc2O1`: the cytotoxicity call in the assay with HSkMC and in the assay with HepG2 was “inactive” in each case. The growth inhibition call in the assay with S. aureus RN4220 was “inactive”.
For the molecule `C[C@H](CO)N1C[C@H](C)[C@@H](CN(C)C(=O)Nc2ccc3c(c2)OCO3)OCCCC[C@H](C)Oc2ccc(NC(=O)Nc3ccc4c(c3)OCO4)cc2C1=O`, the cytotoxicity call in the assay with HSkMC and with HepG2 was “inactive” each time. Besides, in the assay on S. aureus RN4220, the growth inhibition call is “inactive”.
